# Assay results published in PubChem BioAssay AID1745853 (National Center for Advancing Translational Sciences (NCATS), 2022).
# The other results are listed elsewhere or left out. These are further read-outs of the screen, such as a control signal, another cell line or another target. No call is given for them.
# What was measured:
# Assay in all cases: Primary Screen for Target Class Profiling of Small Molecule Inhibitors of Methyltransferases
# [1] = target: Glycine N-methyltransferase (Homo sapiens) (UniProt Q14749); details: purified enzyme, MTase-Glo SAH luminescence; measured here: GNMT inhibition; at 40 µM; stronger effect = lower value
# Procedure, shortened: (§1)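 Each enzyme was assayed with SAM and its substrate. SAH formation detected by MTase-Glo luminescence; single-point 40 uM screen[…].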
# [2] = target: Guanidinoacetate N-methyltransferase (Homo sapiens) (UniProt Q14353); details: purified enzyme, MTase-Glo SAH luminescence; measured here: GAMT inhibition; at 40 µM; stronger effect = lower value
# Procedure, shortened: as §1
# [3] = target: Histamine N-methyltransferase (Homo sapiens) (UniProt P50135); details: purified enzyme, MTase-Glo SAH luminescence; measured here: HNMT inhibition; at 40 µM; stronger effect = lower value
# Procedure, shortened: as §1
# [4] = target: Nicotinamide N-methyltransferase (Homo sapiens) (UniProt P40261); details: purified enzyme, MTase-Glo SAH luminescence; measured here: NNMT inhibition; at 40 µM; stronger effect = lower value
# Procedure, shortened: as §1
# [5] = target: Phenylethanolamine N-methyltransferase (Homo sapiens) (UniProt P11086); details: purified enzyme, MTase-Glo SAH luminescence; measured here: PNMT inhibition; at 40 µM; stronger effect = lower value
# Procedure, shortened: as §1
# % is scaled to controls: 0 for no effect and ±100 for the full control effect.
SMILES,"activity change, negative = inhibition [1]","activity change, negative = inhibition [2]","activity change, negative = inhibition [3]","activity change, negative = inhibition [4]","activity change, negative = inhibition [5]"
CCCN1C(=O)c2c(C(=O)NCc3ccco3)ncn2CC1(C)C(=O)NCCC(C)C (stereo not given),2.13%,0.397%,4.46%,4.52%,4.95%
Cc1cc(C)c2c(c1)C(N(Cc1cc(C(F)(F)F)cc(C(F)(F)F)c1)c1nnn(C)n1)CCCN2CC1CCC(C(=O)O)CC1 (stereo not given),-3.07%,-0.911%,3.79%,-26.2%,-3.77%
CCOc1ccccc1CN1C(=O)c2cc3oc(C)cc3n2CC1(C)C(=O)NC1CCCCCC1 (stereo not given),-0.328%,0%,2.27%,0.215%,-0.23%
COc1ccc(C2c3cccn3-c3sc4c(c3CN2C(=O)NCc2ccc(F)cc2)CCCC4)cc1 (stereo not given),-2.61%,4.01%,4.47%,-0.009%,0.383%
Cc1cnn(CCC(=O)NC2CCN(c3ccc(=O)n(C)n3)CC2)c1,-3.45%,0.321%,1.59%,-2.72%,-0.922%
CCOC(=O)c1cc2n(n1)CC(C)(C(=O)NCCOC)N(c1ccc(OC)cc1)C2=O (stereo not given),1.65%,0.945%,5.22%,0.537%,2.73%
O=C1CN(Cc2ccc(F)cc2Cl)S(=O)(=O)c2ccccc2N1Cc1ccc(F)cc1,14.4%,0%,9.94%,-1.23%,1.75%
N#CC1C(=O)N=C(c2cc(Cl)ccc2O)C=C1c1cc(OCc2ccccc2)cc(OCc2ccccc2)c1 (stereo not given),-8.83%,-27.8%,8.51%,-25%,-2.92%
